Results reported in paper PMC4336329 (PLoS ONE, 2015).
Out of some 310,000 compounds screened, about 2,200 (0.71%) showed an effect of 50% or more. Effects have a minus sign here. The list shows a part of the results.

Biological target: human ether-à-go-go-related gene (hERG) potassium channel (human, UniProt Q12809)
Assay: primary screen, population patch clamp on CHO cells stably expressing hERG
Protocol: Briefly, Chinese hamster ovary (CHO) cells stably expressing the hERG channel were dislodged from tissue culture flasks and dispensed into PPC plates. […] During the recording, background leak currents were estimated by a 100 ms step to -80 mV from an initial holding potential of -70 mV and subtracted from the subsequent current measurement. The campaign was conducted in two phases using slight differences in recording protocol. In the first phase, the initial voltage pulse used a 100 ms step to -30 mV from a holding potential of -70 mV, a 2 s conditioning step to +25 mV, and a 2 s test step to -30 mV. During the second phase of the screen, the potential during the conditioning step was raised to +45 mV. In both phases of the campaign, a secondary voltage pulse was applied using the same parameters as the second phase initial pulse. The initial and secondary pulses were applied in the absence of compound, and upon application of 1 μM and 10 μM test concentrations. Small molecule effects on hERG current density were quantified by […].

Sequence of human ether-à-go-go-related gene (hERG) potassium channel (Q12809 whole entry, looked up): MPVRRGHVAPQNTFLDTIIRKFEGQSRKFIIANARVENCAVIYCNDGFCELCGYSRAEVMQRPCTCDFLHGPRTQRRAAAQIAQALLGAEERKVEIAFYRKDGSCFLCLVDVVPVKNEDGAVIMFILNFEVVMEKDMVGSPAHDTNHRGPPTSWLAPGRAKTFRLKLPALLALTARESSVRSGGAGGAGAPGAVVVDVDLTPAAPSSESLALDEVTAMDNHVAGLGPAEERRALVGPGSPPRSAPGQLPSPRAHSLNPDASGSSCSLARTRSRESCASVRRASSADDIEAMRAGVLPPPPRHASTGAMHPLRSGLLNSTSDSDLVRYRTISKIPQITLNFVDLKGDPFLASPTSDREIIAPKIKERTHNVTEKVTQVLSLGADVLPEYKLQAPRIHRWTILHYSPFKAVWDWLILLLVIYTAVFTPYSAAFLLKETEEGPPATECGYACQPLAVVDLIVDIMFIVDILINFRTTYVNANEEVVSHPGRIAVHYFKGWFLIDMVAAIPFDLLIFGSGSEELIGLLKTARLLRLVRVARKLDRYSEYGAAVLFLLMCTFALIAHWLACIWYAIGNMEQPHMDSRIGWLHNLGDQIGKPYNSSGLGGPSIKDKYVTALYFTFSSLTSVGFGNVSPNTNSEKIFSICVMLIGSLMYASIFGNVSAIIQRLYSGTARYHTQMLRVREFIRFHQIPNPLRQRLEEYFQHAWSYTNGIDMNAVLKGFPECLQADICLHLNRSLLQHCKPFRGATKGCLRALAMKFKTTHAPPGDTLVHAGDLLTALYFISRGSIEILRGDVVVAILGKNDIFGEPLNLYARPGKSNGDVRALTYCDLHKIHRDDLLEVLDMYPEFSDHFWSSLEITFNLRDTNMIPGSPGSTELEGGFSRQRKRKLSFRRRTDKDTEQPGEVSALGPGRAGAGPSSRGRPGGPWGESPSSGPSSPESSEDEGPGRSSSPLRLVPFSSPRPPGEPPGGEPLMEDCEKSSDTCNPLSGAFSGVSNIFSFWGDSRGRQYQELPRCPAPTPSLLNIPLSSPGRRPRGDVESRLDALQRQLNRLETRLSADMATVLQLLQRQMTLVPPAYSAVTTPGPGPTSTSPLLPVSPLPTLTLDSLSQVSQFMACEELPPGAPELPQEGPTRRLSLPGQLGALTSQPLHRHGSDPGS

Compared with `NC(=O)c1ccc(NC(=O)c2ccc(COc3ccc(F)cc3)o2)cc1`, `O=C(Cc1ccc(F)cc1)N/N=C/c1ccncc1` is lower in “hERG current change (%, negative = inhibition) at 1uM” value: 6.99% for the first, 4.01% for the second.

Going from `CC(=O)c1ccc(N2CCN(C(=O)Cc3cccs3)CC2)cc1` to `CCOC(=O)c1c(C)c(-c2ccccc2)n(CC(=O)N2CCN(C)CC2)c1C`, the “hERG current change (%, negative = inhibition) at 1uM” value rises from 2.08% to 6.27%.

Compared with `Cc1ccc(CNC(=O)c2coc(=O)c3ccccc23)o1`, `CC(=O)NCCNC(=O)c1cc(-c2cccc3ccccc23)nc2ccccc12` is lower in “hERG current change (%, negative = inhibition) at 1uM” value: 17.5% for the first, 9.77% for the second.

Going from `COc1ccc(-n2cc([N+](=O)[O-])c(=O)c3ccc(Cl)cc32)cc1` to `COc1ccc(C(=O)OCn2nnc3ccccc3c2=O)cc1`, the “hERG current change (%, negative = inhibition) at 1uM” value rises from 3.6% to 14.7%.

Going from `CC1(C)CC(=O)C(=CN2CCOCC2)C(=O)C1` to `O=C(c1ccc(CS(=O)(=O)c2ccc(Br)cc2)o1)N1CCOCC1`, the “hERG current change (%, negative = inhibition) at 1uM” value falls from 9.47% to 7.27%.

First: CC(C)(C)c1ccc(S(=O)(=O)N2CCN(Cc3cc4c(cc3O)OCO4)CC2)cc1
Second: COCCn1c(C)cc(C(=O)COC(=O)CCc2ccc(S(=O)(=O)N3CCOCC3)cc2)c1C
The “hERG current change (%, negative = inhibition) at 1uM” value of the first is lower: 5.45% for the first, 7.56% for the second.

Compared with `COc1ccc(-c2noc(CN(C)S(=O)(=O)c3ccccc3)n2)cc1OC`, `COc1ccc(S(=O)(=O)NCCc2ccco2)cc1OC` is lower in “hERG current change (%, negative = inhibition) at 1uM” value: 8.37% for the first, 7.85% for the second.

First: O=C(O)c1cc(S(=O)(=O)N2CCCCCC2)c(Cl)cc1Cl
Second: Cc1cc(S(=O)(=O)N2CCCCC2)ccc1OCC(=O)N1CCCC1
The “hERG current change (%, negative = inhibition) at 1uM” value of the first is higher: 10.5% for the first, -5.99% for the second.

Compared with `Cn1cc([N+](=O)[O-])c(C(=O)Nc2ccn(Cc3c(F)c(F)cc(F)c3F)n2)n1`, `Cn1cc(CNC(=O)C2CCC(=O)N(Cc3ccccc3F)C2)cn1` (centres unmarked) is higher in “hERG current change (%, negative = inhibition) at 1uM” value: -3.6% for the first, 14.8% for the second.

Compared with `CCCC(=O)C1=C(N(C)c2ccccc2)CC(C)(C)C(C(=O)OC)C1=O` (centres unmarked), `CCOC(=O)C1(Cc2ccccc2C(F)(F)F)CCN(Cc2ccc(COC)o2)CC1` is higher in “hERG current change (%, negative = inhibition) at 1uM” value: 4.75% for the first, 10.1% for the second.

First: Cc1cc(C)cc(NC(=O)COc2ccc(C(=S)N3CCOCC3)cc2)c1
Second: Cc1cc(NC(=O)COC(=O)C2CC(=O)N(c3cccc(Cl)c3)C2)no1 (centres unmarked)
The “hERG current change (%, negative = inhibition) at 1uM” value of the first is lower: 1.9% for the first, 9.09% for the second.

Going from `CCc1cc(Cn2nc(-c3ccccc3)cc2C(=O)NCc2ccccc2OC)on1` to `O=C(OCCN1C(=O)c2ccccc2C1=O)Oc1ccccc1`, the “hERG current change (%, negative = inhibition) at 1uM” value rises from 6.59% to 6.69%.

Going from `CC(=O)Nc1cccc(NC(=O)CS(=O)(=O)c2cn(CC(=O)N3CCCC3)c3ccccc23)c1` to `O=S(=O)(Nc1ccc(N2CCCCC2)cc1)c1ccccc1F`, the “hERG current change (%, negative = inhibition) at 1uM” value rises from 10.2% to 12.2%.

Going from `CCNC(=O)c1sc(=S)n(-c2ccc(C)cc2)c1N` to `COC(=O)CSc1nc(-c2ccc(C)cc2)c2c(c1C#N)CCCC2`, the “hERG current change (%, negative = inhibition) at 1uM” value rises from 3.75% to 9.7%.

Going from `Cc1cc(Cl)ccc1N(CC(=O)NCCSCc1ccco1)S(C)(=O)=O` to `O=c1ccc(-c2ccc(S(=O)(=O)Nc3cccc(F)c3)o2)n[nH]1`, the “hERG current change (%, negative = inhibition) at 1uM” value falls from 13.8% to -7.68%.

Going from `Cc1onc(-c2c(Cl)cccc2Cl)c1C(=O)O/N=C(\C#N)c1ccccc1` to `N/C(=N\OC(=O)c1ccc2ccccc2c1)c1ccc(Br)cc1`, the “hERG current change (%, negative = inhibition) at 1uM” value rises from 7.14% to 10.4%.

Going from `Cn1c(/N=C/c2ccccc2[N+](=O)[O-])nc2ccccc21` to `Cn1cnc2c(=O)sc3ccccc3c21`, the “hERG current change (%, negative = inhibition) at 1uM” value rises from 11.6% to 17.6%.

Going from `O=C(NCCCCCCNC(=O)c1cccs1)c1cccs1` to `O=C(CNC(=O)C12CC3CC(CC(C3)C1)C2)NCc1ccccc1`, the “hERG current change (%, negative = inhibition) at 1uM” value falls from 13.4% to 0.744%.

Compared with `COc1cc2c(cc1OC)CN(c1ncccc1[N+](=O)[O-])CC2`, `CC(C)c1nc2c(s1)CCc1onc(-c3cccc([N+](=O)[O-])c3)c1-2` is higher in “hERG current change (%, negative = inhibition) at 1uM” value: 5.11% for the first, 13.4% for the second.

Compared with `O=C(COC(=O)CCN=C1NS(=O)(=O)c2ccccc21)NC1CCCCCCC1`, `CN(C)c1ccc(N2C(=NC(=O)COc3ccccc3)SC3CS(=O)(=O)CC32)cc1` (centres unmarked) is higher in “hERG current change (%, negative = inhibition) at 1uM” value: 3.08% for the first, 12.2% for the second.

Going from `C/C(=N\NC(N)=S)c1ccc(-n2ccnc2)cc1` to `COc1cccc(CC2(CO)CCCN(Cc3ccc(C)s3)C2)c1` (centres unmarked), the “hERG current change (%, negative = inhibition) at 1uM” value falls from 5.18% to -10.6%.

First: CCCCN(C(=O)Cc1ccc(S(=O)(=O)N2CCOCC2)s1)c1c(N)n(CCCC)c(=O)[nH]c1=O
Second: Cn1cc(C=O)c(-c2ccc3c(c2)OCCCO3)n1
The “hERG current change (%, negative = inhibition) at 1uM” value of the first is lower: 10.1% for the first, 17.3% for the second.
